Assay results reported in the RNAGym collection of RNA variant scans (doi:10.1093/nar/gkz1192).
The source gives no read counts; variants with many changes may rest on few reads.

B1: CPEB3 Ribozyme (parent)
chain: UAACAGGGGGCCACAGCAGAAGCGUUCACGUCGCAGCCCCUGUCAGAUUCUGGUGAAUCUGCGAAUUCUGCUGUAUAUCUC

Variants of: B1
Assay: self-cleavage, relative activity (ratio to wild type); higher = more cleavage; in vitro, sequencing
Outline: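 CPEB3 self-cleaving ribozyme mutant libraries were made by rounds of error-prone PCR, barcoded, and transcribed in vitro with T7 RNA polymerase for 5 hours at 37°C. Cleavage occurred during transcription and a 15 min DNase I step before EDTA stop. RNAs were reverse transcribed with template switching and Illumina-sequenced, with DNA sequencing mapping barcodes to variants. Relative activity is the variant's cleaved/total read fraction divided by wild type's (minimum 5 reads), averaged across three batches.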

| Variant | self-cleavage |
| --- | --- |
| UAACAGGGGGCCUCAGCAGGAGCGUUCACGUCGCAGCCCCUGUCAGAUUCCGGUGAGUCCGUGAGUUCUGCUGUAUAUCUC [A13U A20G U51C A57G U60C C62U A65G] | 0.23 |
| UAACAGGGGGCCUCAGCAGAGGCGUUCGCGUCGCAGCCCCUGUCAGAUUCUGGUGAAUCUGCGAAUUCUGCCGUAUAUCUC [A13U A21G A28G U72C] | 0.2 |
| UAACAGGGGGCCUCAGCAGGAGCGUCCACGUCGCAGCCCCUGUCAGAUUCUGGUGAAUCCGCGAAUUCUGCUGUAUAUCUC [A13U A20G U26C U60C] | 0.18 |
| UAACAGGGGGCCUCAGCAGUAGCGUUCACGUCGCGGCCCCUGUCAGAUUCUGGUGAAUCUGCGAAUUCUGCUGUAUAUCUC [A13U A20U A35G] | 0.74 |
| UAACAGGGGGCCUCAGCAGGAGCGUCCACGUCGCAGCCCCUGUCAGAUUCUGGUGAAUCUGCGAAUUCCGCUGUAUAUCUC [A13U A20G U26C U69C] | 0.15 |
| UAACAGGGGGCCUCAGCAGUAGCGUUCACGUCGCUGCCCCUGUCAGAUUCUGGUGGAUCUGCGAACUCUGCUGUAUAUCUC [A13U A20U A35U A56G U66C] | 0.37 |
| UAACAGGGGGCCUCAGCAGACGCGUUCACGUCGCUGCCCCUGUCAGAUUCUGGUGAAUCUGCGAAUUCUGCUGUAUAUCUC [A13U A21C A35U] | 0.12 |
| UAACAGGGGGCCUCAGCAGACGCGUUCACGUCGCAGCCCCUGUCAGAUUCUGGUGAAUCUGCGAAUUCUGCCGUAUAUCUC [A13U A21C U72C] | 0.1 |
| UAACAGGGGGCCUCAGCAGUAGCGUUCACGUCGCGGCCCCUGUCAGAUCCUGGCGAAUCUGCGAAUUCUGCUGUAUAUCUC [A13U A20U A35G U49C U54C] | 0.16 |
| UAACAGGGGGCCUCAGCAGAGGCGUUCACGUCGCAGCCCCUGUCAGAUUCUGGUGAAUCUGCGAAUUCUGCUGUGUAUCUC [A13U A21G A75G] | 0.39 |
| UAACAGGGGGCCUCAGCAGGAGCGUUCACGUCGCAGCCCCUGUCAGAUUCAGGUGAAUCUGCGAAUUCAGCUGUAUAUCUC [A13U A20G U51A U69A] | 0.44 |
| UAACAGGGGGCCUCAGCAGUAGCGUUCACGUCGCUGCCCCUGUCAGAUUCUGGAGAAUCUGCGAAUUCUGCUGUAUAUCUC [A13U A20U A35U U54A] | 0.17 |
| UAACAGGGGGCCUCAGCAGGAGCGUACACGUCGCUGCCCCUGUCAGAUUCCGGUGAAUCUGCGAAUUCAGCUGUAUACCUC [A13U A20G U26A A35U U51C U69A U78C] | 0.05 |
| UAACAGGGGGCCUCAGCAGAGGCGUUCCCGUCGCAGCGCCUGUCAGAUUCUGGUGAAUCUGCGAGUUCUGCUGUAUAUCUC [A13U A21G A28C C38G A65G] | 0.07 |
| UAACAGGGGGCCUCAGCAGAGGCGUUCACGUCGCGGCCCCUGUCAGAUUCUGGUGAAUCUGCGAAUUCUGCUGUAUACCUC [A13U A21G A35G U78C] | 1.19 |
| UAACAGGGGGCCUCAGCAGGAGCGUUCACGUCGCAGCCCCUGUCAGAUUCAGGUGAAUCUGCGAAUUCGGCAGUAUAUCUC [A13U A20G U51A U69G U72A] | 0.14 |
| UAACAGGGGGCCUCAGCAGGAGCGUUCACGUCGCAGCCCCUGUCAGAUCCUGGUGAAUCUGCGAAUCCUGCUGUAUAUCUC [A13U A20G U49C U67C] | 0.25 |

| Variant | self-cleavage |
| --- | --- |
| UAACAGGGGGCCUCAGCAGAGGCGUUCACGUCGCAGCCCUUGACAGAUUCUGGUGAAUCUGCGAAUCCUGCUGUAUAUCUC [A13U A21G C40U U43A U67C] | 0.05 |
| UAACAGGGGGCCUCAGCAGUAGUGUUCACGUCGCAGCCCCUGUCAGAUUCUGGUGAAUCCGCGAAUUCUGCUGUAUAUCUC [A13U A20U C23U U60C] | 0.14 |
| UAACAGGGGGCCUCAGCAGUAGCGCUCACGUCUCAGCCCCCGUCAGAUUCAGGUGAAUCUGCGAAUUCUGCUGUAUAUCUC [A13U A20U U25C G33U U41C U51A] | 0.06 |
| UAACAGGGGGCCUCAGCAGAGGCGUUCACGUCGCGGCCCCUGACAGAUUCUGGUGAAUCUGCGAAUUCUGCCGUAUAUCUC [A13U A21G A35G U43A U72C] | 0.14 |
| UAACAGGGGGCCUCAGCAGGAGCGUCCACGUCGCAGCCCCUGUCAGAUUCUGGUGAGUCUGCGAAUUCCGCUGUAUAUCUC [A13U A20G U26C A57G U69C] | 0.09 |
| UAACAGGGGGCCUCAGCAGAGGCGUUCACGUCGCAGCUCCUGUCAGAUUGUGGUGAAUCUGCGAAUUCUGCUGUAUAUCUC [A13U A21G C38U C50G] | 0.1 |
| UAACAGGGGGCCUCAGCAGUAGCGUUCACGUCGCAGCCCCUGUCGGAUUCUGGUGAAUCCGCGAACUCUGCCGUAUAUCUC [A13U A20U A45G U60C U66C U72C] | 0.16 |
| UAACAGGGGGCCUCAGCAGUAGCGCUCACGUCGCAGCCCCUGUCAGAUUCUGGUGAAUCUGCGAAUUCUGCUGUAUAUCUC [A13U A20U U25C] | 0.2 |
| UAACAGGGGGCCUCAGCAGAGGUGUUCACGUCGCAGCCCCUGCCAGAUUCUGGUGUAUCUGCGAACUCUGCUGUAUAUCUC [A13U A21G C23U U43C A56U U66C] | 0.27 |
| UAACAGGGGGCCUCAGCAGUAUCGUUCACGUCGCGGCCCCUGUCAGAUCCUGGUGAAUCUGCGAAUUCUGCUGUAUAUCUC [A13U A20U G22U A35G U49C] | 0.17 |
| UAACAGGGGGCCUCAGCAGAGGCGUUCAUGUCGCAGCCCCUGUCAGAUUCUGGUGAAUCUGCGAAUCCUGCUGUAUAUCUC [A13U A21G C29U U67C] | 0.1 |
| UAACAGGGGGCCUCAGCAGUAGCGUUCACGUCGCAGCCCCCGUCAAAUCCUGGUGAAUCUGCGAAUUCUGCUGUAUAUCUC [A13U A20U U41C G46A U49C] | 0.14 |
| UAACAGGGGGCCUCAGCAGGAGCGUUCACGAUGCAGCCCCUGUCAGAUCCUGGUGAAUCUGCGAAUUCUGCCGCAUAUCUC [A13U A20G U31A C32U U49C U72C U74C] | 0.03 |
| UAACAGGGGGCCUCAGCAGUAGCGUUCACGUCGCAGCCCCUGUCAGACUCUGGUGAAUCUGCGAAUUCUGCUGUACGUCUC [A13U A20U U48C U76C A77G] | 0.11 |
| UAACAGGGGGCCUCAGCAGAGGCGUUCACGUCGCUGCCCCUGUCAGAUUCUGGUGAAUUUGCGAACUCUGCUGUGUAUCUC [A13U A21G A35U C59U U66C A75G] | 0.13 |
| UAACAGGGGGCCUCAGCAGGAGCGUUCACGACGCAGCCCCUGUCAGAUCCUGGUGAAUCUGCGGAUUCCGCUGUAUAUCUC [A13U A20G U31A U49C A64G U69C] | 0.05 |
| UAACAGGGGGCCUCAGCAGUAGCGUUCACGUCACAGCCCCUGUCAGAUUCCGGUGAAUCUGCGAAUUCUGCUGUAUAUCUC [A13U A20U G33A U51C] | 0.04 |
